# Test results as given in the supplement of paper PMC12217912.
# Some of the results follow. The full chains were built here from the parent and the listed change. Inactive controls read about 0.05.
# B1: TEV protease; numbered along this chain (parent)
# chain: MGESLFKGPRDYNPISSSICHLTNESDGHTTSLYGIGFGPFIITNKHLFRRNNGTLVVQSLHGVFKVKDTTTLQQHLVDGRDMIIIRMPKDFPPFPQKLKFREPQREERICLVTTNFQTKSMSSMVSDTSCTFPSGDGIFWKHWIQTKDGQCGSPLVSTRDGFIVGIHSASNFTNTNNYFTSVPKNFMELLTNQEAQQWVSGWRLNADSVLWGGHKVFMVKPEEPFQPVKEATQL
# Variants of: B1
# Assay: raw area under fraction-flipped curve 0-4 h after induction (AUC4h, not background-subtracted), DNA-recorder readout of cleavage of the substrate (dimensionless); higher = more cleavage of the substrate by the protease variant
# Conditions: temperature: 34 °C; time window: 0-4 h after rhamnose induction
# Protocol: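 In vivo DNA recorder in E. coli TOP10(DE3) ΔrhaA at 34 °C. Each TEVp single-site mutant (parent TEVp 0) is paired with a single-site variant of the 7-mer TEVs (canonical ENLYFQ|S). The substrate sits between flexible linkers in a Bxb1-sfGFP-TEVs-SsrA fusion, so cleavage stabilises Bxb1 and speeds flipping of a recombination array, read by NGS. The value is the raw area under the fraction-flipped curve over 0-4 h after rhamnose induction (AUC4h), with ≥20 reads per time point. It is not background-subtracted; inactive controls average about 0.047.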
# 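Also: Bxb1 expression induced with 0.2% (w/v) L-rhamnose at OD600 near 0.5, cultures sampled hourly, flipped fraction per protease–substrate barcode pair counted by paired-end Illumina sequencing.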
Variant,area with substrate ENLYFQA,area with substrate ENLYFQC,area with substrate ENLYFQD,area with substrate ENLYFQG,area with substrate ENLYFQI,area with substrate ENLYFQL,area with substrate ENLYFQM,area with substrate ENLYFQN,area with substrate ENLYFQP,area with substrate ENLYFQQ,area with substrate ENLYFQR,area with substrate ENLYFQS,area with substrate ENLYFQT,area with substrate ENLYFQV,area with substrate ENLYFQW,area with substrate ENLYFQY,area with substrate ENLYFQF,area with substrate ENLYFQH,area with substrate ENLYFQK,area with substrate ENLYFQE
MGESLFKGPRDYNPISSSICHLTNESDGHTTSLYGIGFGPYIITNKHLFRRNNGTLVVQSLHGVFKVKDTTTLQQHLVDGRDMIIIRMPKDFPPFPQKLKFREPQREERICLVTTNFQTKSMSSMVSDTSCTFPSGDGIFWKHWIQTKDGQCGSPLVSTRDGFIVGIHSASNFTNTNNYFTSVPKNFMELLTNQEAQQWVSGWRLNADSVLWGGHKVFMVKPEEPFQPVKEATQL [F41Y],0.145,0.171,0.0841,0.106,0.0692,0.0467,0.086,0.0896,0.0649,0.0636,0.0641,0.101,0.0552,0.0771,0.0632,0.0757,,,,
MGESLFKGPRDYNPISSSICHLTNESDGHTTSLYGIGFGPFIITNKHLFRRNNGTLVVQSLHGVFKVKVTTTLQQHLVDGRDMIIIRMPKDFPPFPQKLKFREPQREERICLVTTNFQTKSMSSMVSDTSCTFPSGDGIFWKHWIQTKDGQCGSPLVSTRDGFIVGIHSASNFTNTNNYFTSVPKNFMELLTNQEAQQWVSGWRLNADSVLWGGHKVFMVKPEEPFQPVKEATQL [D69V],0.0427,0.0969,0.0615,,0.0485,,0.0831,0.0612,0.0502,,0.0628,0.0862,,,0.0535,,0.0784,0.0696,,
MGESLFKGPRDYNPISSSICHLTNESDGHTTSLYGIGFGPFIITNKHLFRRNNGTLVVQSLHGVFKVKDTTTLQQHLVDGRDMIIIRMPKDFPPFPQKLKFREPQREERICLVTTNFQTKSMSSMVSDTSCTFPSGDGIFWKHWIQTKDGQCGSPAVSTRDGFIVGIHSASNFTNTNNYFTSVPKNFMELLTNQEAQQWVSGWRLNADSVLWGGHKVFMVKPEEPFQPVKEATQL [L156A],0.11,0.102,,0.0887,,0.044,,0.0717,,,0.0682,0.092,0.0613,0.0884,0.0842,0.0725,,0.0868,0.0618,
MGESLFKGPRDYNPISSSICHLTNESDGHTTSLYGIGFGPFIITNKHLFRRNNGTLVVQSLHGVFKVKDTTTLQQHLVDGRDMIIIRMPKDFPPFPQKLKFREPQREERICLVTTNFQTKSMSSMVSDTSCTFPSGDGIFWKHWIQTKDGQCGSPLVSTRDGFIVGIHSASNFTNTNNYFTSVPKNFMELLTNQEAQQWVSGWRLNADSVLYGGHKVFMVKPEEPFQPVKEATQL [W212Y],0.116,0.102,,,0.0565,0.0568,0.0577,,,,,0.12,,,,,,,0.061,
MGESLFKGPRDYNPISSSICHLTNESDGHTTSLYGIGFGPFIITNKHLFRRNNGTLVVQSLHGVFKVKDTTTLQQHLVDGRDMIIIRMPKDFPPFPQKLKFREPQREERICLVTTNFQTKSMSSMVSDTSCTFPSGDGIFWKHWIQTKDGQCGSPLVSTRDGFIHGIHSASNFTNTNNYFTSVPKNFMELLTNQEAQQWVSGWRLNADSVLWGGHKVFMVKPEEPFQPVKEATQL [V165H],0.0538,0.0839,,,,0.0577,0.0479,0.043,,,0.0388,0.0542,0.0544,0.0457,,,,,,
MGESLFKGPRDYNPISSSICHLTNESDGHTTSLYGIGFGPFIITNKHLFTRNNGTLVVQSLHGVFKVKDTTTLQQHLVDGRDMIIIRMPKDFPPFPQKLKFREPQREERICLVTTNFQTKSMSSMVSDTSCTFPSGDGIFWKHWIQTKDGQCGSPLVSTRDGFIVGIHSASNFTNTNNYFTSVPKNFMELLTNQEAQQWVSGWRLNADSVLWGGHKVFMVKPEEPFQPVKEATQL [R50T],0.111,0.129,0.0527,,0.0619,0.0428,0.114,0.0767,,,0.0795,0.121,0.0717,0.0555,0.0771,,0.0761,0.101,0.0565,0.0597
MGESLFKGPRDYNPISSSICHLTNESDGHTTSLYGIGFGPFIITNKHLLRRNNGTLVVQSLHGVFKVKDTTTLQQHLVDGRDMIIIRMPKDFPPFPQKLKFREPQREERICLVTTNFQTKSMSSMVSDTSCTFPSGDGIFWKHWIQTKDGQCGSPLVSTRDGFIVGIHSASNFTNTNNYFTSVPKNFMELLTNQEAQQWVSGWRLNADSVLWGGHKVFMVKPEEPFQPVKEATQL [F49L],0.0434,0.0612,,0.0988,0.0376,,0.0595,0.0562,,,0.0605,0.0653,0.0416,,0.0658,0.0476,,0.0723,0.0581,
MGESLFKGPRDYNPISSSICHLTNESDGHTTSLYGIGFGPFIITNKHLFRRNNGTLVVQILHGVFKVKDTTTLQQHLVDGRDMIIIRMPKDFPPFPQKLKFREPQREERICLVTTNFQTKSMSSMVSDTSCTFPSGDGIFWKHWIQTKDGQCGSPLVSTRDGFIVGIHSASNFTNTNNYFTSVPKNFMELLTNQEAQQWVSGWRLNADSVLWGGHKVFMVKPEEPFQPVKEATQL [S60I],0.0808,0.0843,,,0.0289,,0.0702,,,,0.0638,0.087,0.0572,,0.0603,,0.0774,,,
MGESLFKGPRDYNPISSSICHLTNESDGHTTSLYGIGFGPFIITNKHLFRRNNGTLVVQSLHGVFKVKDTTTLQQHLVDGRDMIIIRMPKDFPPFPQKLKFREPQREERICLVTTNFQTKSMSSMVSDTSCTFPSGDGIFWKHWIGTKDGQCGSPLVSTRDGFIVGIHSASNFTNTNNYFTSVPKNFMELLTNQEAQQWVSGWRLNADSVLWGGHKVFMVKPEEPFQPVKEATQL [Q146G],0.0852,0.11,,,0.039,0.0641,0.0771,,,,0.0699,0.112,0.0653,0.0872,0.0593,,,0.118,0.0928,
